# Test results published in the supplement of paper PMC11741623.
# The other results are listed elsewhere or left out. Interaction screen of human proteins with wild-type SARS-CoV-2 proteins by split-DHFR complementation in yeast, 1 µg/mL methotrexate. Value = fitness of the pair (three or more lineages) minus that of the viral protein without a human partner, on a scale set by negative (0) and fused positive (1) controls, mean of up to three cultures; higher = more likely to interact. Active = false discovery rate below 0.05 (one-sided t-test) in at least one culture. Nearly all pairs are not hits, and differences among them are mostly noise (correlation between cultures about 0.3); most hits were seen in one culture only. Human sequences are the Swiss-Prot entries looked up by gene name; the clone may be another isoform. NSP2 values were corrected by the authors for a growth advantage. Listed are human proteins with a hit and a random twelfth of the others.
# System: SARS-CoV-2 ORF9Bwu (the 73-codon ORF)
# Test: yeast fitness gain over the viral ORF with no human partner (scaled fitness); higher = more likely to interact
# Protocol: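 Split mouse DHFR complementation in pooled diploid yeast: human ORFeome clones carry one fragment and viral ORFs the other; barcoded lineages compete in 1 µg/mL methotrexate and fitness is read by barcode sequencing in up to three cultures.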
row,Substance,yeast fitness gain
1,"IDH3B, O43837",inactive: -0.0575
2,"POLD2, P49005",inactive: 0.0484
3,"HEATR1, Q9H583",inactive: 0.0378
4,"KLF6, Q99612",inactive: 0.0198
5,"BHLHA15, Q7RTS1",inactive: -0.105
6,"FAM19A3, Q7Z5A8",inactive: -0.0136
7,"BNIP3L, O60238",inactive: -0.0105
8,"IHH, Q14623",inactive: 0.00346
9,"TLX3, O43711",inactive: 0.0228
10,"ZNF673, Q5JUW0",inactive: -0.0355
11,"SOX14, O95416",inactive: 0.000334
12,"FAM136A, Q96C01",inactive: 0.0272
13,"NDRG4, Q9ULP0",inactive: 0.0196
14,"PRR14L, Q5THK1",inactive: 0.0886
15,"TIMM50, Q3ZCQ8",inactive: 0.0355
16,"CBWD1, Q9BRT8",inactive: 0.0117
17,"MAGEA10, P43363",inactive: 0.00207
18,"ZNF785, A8K8V0",inactive: -0.024
19,"CABP5, Q9NP86",inactive: 0.0597
20,"HSPB7, Q9UBY9",inactive: -0.113
21,"ZNF517, Q6ZMY9",inactive: 0.0182
